# Results published in PubChem BioAssay AID1963576 (National Center for Advancing Translational Sciences (NCATS), 2024).
# Screen size: about 46,000 compounds; about 60 (0.1%) were called active. About 3% were inconclusive and are not listed. Calls come from the whole dose curve; as a rule, active = well fitted inhibition curve with a large enough effect; inconclusive = small, poorly fitted or top-dose-only effect; inactive = no such curve, though single readings can be large or run the other way. This is one part of the list.
# Assay: Primary qHTS assay for Inhibitors of ovarian cancer metastasis using an organotypic tumor microenvironment (TME) model. Note: nearly all actives have a fitted effect of over 65% in size.
# Conditions: SKOV3ip1-GFP adhesion/invasion on 3D omental model, fluorescence; series mostly up to 45.8 µM; activity change, negative = inhibition: at the top concentration
# Excerpt: PI: Ernst Lengyel MD., Ph.D. Department of Obstetrics and Gynecology, Section of Gynecologic Oncology University of Chicago Medicine, Chicago, Illinois. The tumor microenvironment (TME) is a key determinant of metastatic efficiency. We performed a quantitative high-throughput screen (qHTS) of diverse medicinal chemistry tractable scaffolds (44,420 compounds) and pharmacologically active small molecules (386 compounds) using a layered organotypic, robust assay representing the ovarian cancer metastatic TME. This 3D model contains primary human mesothelial cells, fibroblasts, and extracellular matrix, to which fluorescently labeled ovarian cancer cells are added. Initially, 100 compounds inhibiting ovarian cancer adhesion/invasion to the 3D model in a dose-dependent manner were identified. Of those, eight compounds were confirmed active in five high-grade serous ovarian cancer cell lines and were further validated in secondary in vitro and in vivo biological assays. […] Specifically, NCGC00117362 and PP-121 inhibited ovarian cancer adhesion, invasion, and proliferation, whereas milciclib inhibited ovarian cancer invasion and proliferation. […] To evaluate the clinical potential of NCGC00117362, structure - activity relationship studies were performed. […] The three compounds identified have promise as therapeutics for prevention and treatment of ovarian cancer metastasis.
# PROTOCOL TABLE (as described by Inglese J, Shamu CE and Guy RK. 2007) SEQUENCE No. (e.g., 1, 2, 3, etc.); […] (e.g., Cells, Incubation, Reagent, etc.); VALUE; DESCRIPTION. 1; Cells; 4 uL; primary human omental fibroblast, black, clear bottom, low base, 1536-well Aurora assay plate. 2; Incubation; 48 hr; 37C. 3; Cells; 3 uL; 1,200 SKOV3ip1-GFP cells. 4; Compounds; 23nL; acoustic dispenser. 5; Incubation; 2 hr; room temperature. 6; Incubation; 16 hr; 37C. 7; Wash; 5 uL; 1x PBS. 8; Fixing; 5 uL; 4% paraformaldehyde (PFA). 9; Incubation; 15 min; room temperature 10; Wash, 5 uL; 1x PBS. 11; Detection; Fluorescence, excitation filter 488 nm, emission filter 509 nm. NOTES (numbers refer to Sequence numbers above) 1. For the 1,536-well format, 40 primary human omental fibroblasts and 400 mesothelial cells were seeded with 0.02 µg fibronectin and 0.02 µg collagen type I in 4 µL of growth media (2.3 mm2; Supplementary Fig. S1A). 2. Assay plates were incubated for 48 hours at 37 C. 3. After incubation, 1,200 SKOV3ip1-GFP were seeded in 3 µL of serum-free media (growth media minus FBS) on top of primary human omental cells. 4. Compounds or controls were added to each well immediately after the addition of the cancer cells. Compounds were screened in four doses (0.36-46 µmol/L), and the plates contained the positive control (Tomatine) in eight doses (0.035-75 µmol/L) and DMSO (equal volume controls) 5 - 6. The plates were incubated at room temperature for 2 hours and then at 37 degrees C for 16 hours. 7 - 10. Following incubation, the media were aspirated and each well washed with PBS (5 µL) and then fixed with 4% paraformaldehyde (PFA; 5 µL). After 15 minutes, the PFA solution was aspirated, PBS (5 µL) was added. 11. The number of GFP-labeled cells analyzed using a fluorescent cytometer TTP LabTech Acumen eX3 using 488 nm excitation filter and 509 nm emission filter. Data was normalized to the DMSO treated for negative and Tomatine treated wells for positive control. REFERENCES: Inglese J, Shamu CE and Guy RK, Reporting data from high throughput screening of small molecule libraries, Nature Chemical Biology, 2007, 3(8): 438-441. doi.org/10.1038/nchembio0807-438. Yasgar A, Shinn P, Jadhav A, Auld DS, Michael S, Zheng W, Austin CP, Inglese J and Simeonov A, Compound Management for Quantitative High-Throughput Screening. J. Assoc. Lab. Auto., 2008, 13: 79-89. doi: 10.1016/j.jala.2007.12.004.
SMILES,"activity change, negative = inhibition",outcome
CCc1cnc2c(c1SCC(=O)c1ccc(OC)cc1)c(=O)n(C)c(=O)n2C,inactive: -0.572%,–
COc1ccccc1CNC(=O)CC(c1ccc(OC)c(OC)c1)N1Cc2ccccc2C1=O (stereo not drawn),–,inactive
Cc1c(-c2ccc(Cl)cc2)c(=O)oc2ccc(OC(=O)N3CCOCC3)cc12,–,inactive
COc1cccc(-n2c(-c3cccc(F)c3)nc3c(cnn3-c3ccc(C)cc3)c2=O)c1,inactive: 25.4%,–
O=C(O)c1cccc(Nc2ncnc3scc(-c4ccccc4)c23)c1,–,inactive
CCc1ccc(S(=O)(=O)c2nnn3c2nc(Nc2ccc(F)cc2)c2cc(Cl)ccc23)cc1,inactive: -7.37%,–
CCC(C)NC(=O)CCSc1nc(-c2ccc(OC)cc2)cc(C(F)(F)F)n1 (stereo not drawn),–,inactive
O=C(Nc1cccnc1)c1cc(-c2cccc(Cl)c2)on1,inactive: -10.3%,–
O=C(NCc1ccc(F)cc1)c1cc(-c2ccc(Cl)cc2)n[nH]1,–,inactive
Cc1ccccc1C(=O)Oc1c(Sc2ccccc2)c(C)nn1C(C)(C)C,–,inactive
Nc1ccc(S(=O)(=O)Nc2ncccn2)cc1,inactive: -4.63%,–
Cc1ccc(C(=O)Nc2nnc(S(=O)(=O)N3CCc4ccccc43)s2)cc1,inactive: 7.31%,–
COc1ccc(NC(=O)c2cc(CN3CCCC3)on2)cc1Cl,inactive: 8.7%,–
Cc1cccc(Cc2c(C)nc3nc(SCC(=O)NCc4ccccc4)nn3c2C)c1,–,inactive
CC(C)Oc1ccc(CNC(=O)c2cccc(NC(=O)N3CCSc4ncccc43)c2)cc1,inactive: -2.63%,–
CCC(=O)N1CCc2cc(Br)cc(S(=O)(=O)N3CCCC(C(=O)Nc4cccc(F)c4)C3)c21 (stereo not drawn),–,inactive
CCOC(=O)CSc1nc2sc3c(c2c(=O)n1-c1ccccc1)CCC(C(C)(C)C)C3 (stereo not drawn),inactive: -0.119%,–
CCOc1ccc(CCNC(=O)CCSCc2ccc(Cl)cc2)cc1OCC,inactive: -12.4%,–
CCc1ccc2oc(-c3cc(NC(=O)c4cccnc4)cc(C)c3O)nc2c1,inactive: 0.437%,–
COc1ccc(CC(=O)NCc2ccc3c(c2)CCN3C(=O)c2ccc(Cl)cc2)cc1,inactive: -16.8%,–
CCOc1ccc(NC(=O)c2oc3ccccc3c2NC(=O)c2cc(C)cc(C)c2)cc1,–,inactive
COc1ccc(CCNC(=O)Cn2ncc3c(=O)oc4ccccc4c32)c(OC)c1,–,inactive
CCOc1ccc(NC(=O)c2cnc(Nc3ccccc3OC)c3ccccc23)cc1,–,inactive
Cn1c(=O)oc2cc(S(=O)(=O)N3CCC(C(=O)Nc4ccc(F)c(Cl)c4)CC3)ccc21,–,inactive

SMILES,"activity change, negative = inhibition",outcome
CCOC(=O)c1sc(NC(=O)c2cc3nc(-c4ccccc4)cc(C(F)(F)F)n3n2)c(C(=O)OCC)c1C,inactive: 2.3%,–
CCOC(=O)c1cc(-c2ccccc2)n(-c2cccc(C(=O)Nc3cc(OC)cc(OC)c3)c2)c1C,inactive: -8.41%,–
Cc1cc(C)cc(Oc2c(C(F)(F)F)oc3cc(OCC(=O)NC4CCCCC4)ccc3c2=O)c1,inactive: 4.17%,–
COc1cccc(CNC(=O)CN(c2ccc(C(C)C)cc2)S(=O)(=O)c2c(C)noc2C)c1,–,inactive
O=C(Nc1cccc(Br)c1)N1CCC(CN2CCCCCC2)CC1,inactive: 11%,–
Cc1ccc(CNC(=O)CSc2c(C)cnc3c2c(=O)n(C)c(=O)n3C)cc1,inactive: -1.3%,–
CCC1CN(C(=O)N2CCC(C(=O)NCCc3ccc(OC)c(OC)c3)CC2)c2ccccc2O1 (stereo not drawn),inactive: -9.29%,–
Cc1ccc(C)c(N2CCN(C(=O)C3CCC(CNS(=O)(=O)c4cccs4)CC3)CC2)c1 (stereo not drawn),–,inactive
CCOC(=O)N1CCc2c(sc3c2c(=O)n(-c2ccc(CC)cc2)c(=O)n3Cc2cccc(Cl)c2)C1,–,inactive
C=CCc1cc(OC)c(O)c(C(=O)NCCO)c1,inactive: -3.92%,–
CCc1cccc(NC(=O)Cn2c(=O)n(CCCCCC(=O)NCc3ccc(F)cc3)c(=O)c3sccc32)c1,inactive: 2.39%,–
Cc1ccc(C)c(N2CCN(C(=O)c3cc4cc5ccc(C)cc5nc4o3)CC2)c1,–,inactive
CCn1cc(C(=O)OCC(=O)Nc2cc(Cl)ccc2C)c(=O)c2ccc(C)nc21,inactive: -4.24%,–
Cc1ccc(NC(=O)C2CCN(S(=O)(=O)c3cccc4nsnc34)CC2)cc1,–,inactive
CCCCOc1ccc(C2C(=O)N(C3CCCCC3)CC(=O)N2C2CCCCC2)cc1 (stereo not drawn),inactive: 9.67%,–
Cc1ccc(NC(=O)CN2C(=O)C(c3ccc(F)cc3)=NC23CCCCCC3)c(C)c1,inactive: -0.579%,–
CCCCCCc1c(C)c2c(cc(C)c3c(C)coc32)oc1=O,inactive: -7.72%,–
CCOC(=O)c1ccccc1NC(=O)CN(c1ccccc1)S(=O)(=O)c1ccc(OCC)cc1,inactive: 1.06%,–
Cc1cccc(NC(=O)Nc2cccs2)c1C,inactive: -2.1%,–
CCn1nc(C)c2c(-c3ccccc3)cc(=O)n(C(C)C(=O)Nc3ccc(OC)c(OC)c3)c21 (stereo not drawn),–,inactive
COc1ccc(C2C=C(c3ccccc3)Nc3nc(NC(C)=O)nn32)cc1 (stereo not drawn),inactive: 20.9%,–
O=C(CCc1cn(Cc2ccc(F)cc2)c2ccccc12)NC1CCCCC1,inactive: 2.22%,–
Cc1cc(C)cc(NC(=O)Cn2nnc(-c3ccccc3F)n2)c1,inactive: -19.1%,–
CC1=C(c2ccc(C)c(C)c2)S(=O)(=O)N(Cc2ccc(C(=O)NCc3ccccc3F)cc2)C1=O,inactive: 7.69%,–
